# Results as given in paper PMC4336329 (PLoS ONE, 2015).
# About 2,200 (0.71%) of roughly 310,000 compounds showed an effect of 50% or more. Effects have a minus sign here. Some of the results follow.
# Target: human ether-à-go-go-related gene (hERG) potassium channel (human, UniProt Q12809)
# Test: primary screen, population patch clamp on CHO cells stably expressing hERG
# Sequence of human ether-à-go-go-related gene (hERG) potassium channel (Q12809 whole entry, looked up): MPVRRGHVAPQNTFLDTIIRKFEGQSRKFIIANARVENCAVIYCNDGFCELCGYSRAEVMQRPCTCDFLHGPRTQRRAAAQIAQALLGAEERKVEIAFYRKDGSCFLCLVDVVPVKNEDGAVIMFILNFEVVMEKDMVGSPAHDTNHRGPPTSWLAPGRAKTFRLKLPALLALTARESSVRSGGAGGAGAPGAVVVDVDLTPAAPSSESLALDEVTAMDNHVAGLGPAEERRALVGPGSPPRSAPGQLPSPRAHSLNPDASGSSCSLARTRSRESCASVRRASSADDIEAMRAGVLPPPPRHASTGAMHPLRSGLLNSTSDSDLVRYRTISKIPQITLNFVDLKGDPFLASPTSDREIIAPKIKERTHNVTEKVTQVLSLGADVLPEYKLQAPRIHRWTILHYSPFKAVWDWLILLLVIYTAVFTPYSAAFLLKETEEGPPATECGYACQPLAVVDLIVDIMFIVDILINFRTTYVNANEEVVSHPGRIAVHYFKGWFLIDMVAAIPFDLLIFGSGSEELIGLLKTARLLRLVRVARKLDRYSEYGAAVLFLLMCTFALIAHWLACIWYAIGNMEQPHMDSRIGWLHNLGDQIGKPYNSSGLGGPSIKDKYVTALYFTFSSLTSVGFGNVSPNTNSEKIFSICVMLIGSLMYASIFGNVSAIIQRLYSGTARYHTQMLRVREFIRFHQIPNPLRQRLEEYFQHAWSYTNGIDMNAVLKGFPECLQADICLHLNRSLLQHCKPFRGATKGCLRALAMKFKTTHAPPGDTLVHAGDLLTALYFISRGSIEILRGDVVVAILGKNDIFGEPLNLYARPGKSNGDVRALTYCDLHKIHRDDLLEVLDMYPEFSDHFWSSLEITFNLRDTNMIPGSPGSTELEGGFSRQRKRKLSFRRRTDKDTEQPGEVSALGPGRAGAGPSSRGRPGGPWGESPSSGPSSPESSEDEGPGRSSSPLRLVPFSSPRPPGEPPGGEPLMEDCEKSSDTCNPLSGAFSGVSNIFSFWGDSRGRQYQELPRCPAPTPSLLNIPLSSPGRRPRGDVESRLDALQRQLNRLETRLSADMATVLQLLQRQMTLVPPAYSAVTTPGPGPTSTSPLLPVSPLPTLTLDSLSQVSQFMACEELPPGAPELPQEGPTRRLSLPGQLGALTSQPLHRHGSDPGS
row,Structure (SMILES),"hERG current change (%, negative = inhibition) at 1uM"
1,COCCNC(=O)c1cc(-c2cccc(OC)c2)on1,19.7%
2,Cc1cccc(COCC(Cc2ccccc2)N2CCN(C(=O)c3ccc(C(F)(F)F)cc3)CCC2=O)c1 (centres unmarked),2.27%
3,CN1C(=O)c2cccc3c(S(=O)(=O)Nc4ccccc4F)ccc1c23,7.98%
4,C=CCOc1ccc(/C=C2\SC(=S)N(NS(=O)(=O)c3ccc(C)cc3)C2=O)cc1,4.41%
5,COc1cc2cc(CN(CCO)C(=O)c3cccs3)c(=O)[nH]c2cc1OC,1.16%
6,Cc1cccc(C)c1NC(=O)C1CCCN1S(=O)(=O)c1ccccc1 (centres unmarked),10.8%
7,CC(C)CNC(=S)NC(=O)c1csc([N+](=O)[O-])c1,13.8%
8,C=CCOC(=O)C1=C[C@@H](c2ccc3c(c2)OCO3)C[C@@H](OCc2ccc(CO)cc2)O1,14.5%
9,COc1ccc(C(=O)NC23CC4CC(CC(C4)C2)C3)cc1OC,14.6%
10,CNC(=S)N1CCn2cccc2C1c1cccnc1 (centres unmarked),7.34%
11,NS(=O)(=O)c1ccc(NNC(=O)c2ccc(F)cc2F)cc1,13.8%
12,O=C1C2C3C=CC(C3)C2C(=O)N1CCCCCCN1C(=O)C2C3C=CC(C3)C2C1=O (centres unmarked),-0.213%
13,COc1ccccc1Nc1nc(N)nc(CN2CCCCC2)n1,-4.26%
14,CCOC(=O)C1CCN(C(=O)COc2ccc3c(c2)OCO3)CC1,13%
15,CC(=O)Nc1cnn(Cc2ccc(Br)cc2)c1,7%
16,O=C(c1ccc(Cl)cc1)N1CCC(O)(CSc2ccccc2)CC1,1.27%
17,Cc1cccc(NC(=O)c2ccccc2NC(=O)C2CCCCC2)c1C,11.3%
18,O=C(COc1cc(Cl)c(Cl)cc1Cl)Nn1cnnc1,-8.45%
19,O=C(CCCCC(=O)NC1CCCC1)NC1CCCC1,13.6%

row,Structure (SMILES),"hERG current change (%, negative = inhibition) at 1uM"
1,CCN(CC)CCCCCC(=O)Nc1ccccc1C(=O)Nc1ccccc1,-16.5%
2,CC(=O)CC1(OC(C)=O)C(=O)N(C)c2ccccc21 (centres unmarked),3.54%
3,CC(C)Sc1cc(N2CCCC2)nc(-c2ccccc2Cl)n1,8.95%
4,O=C1C2CCc3ccccc3C2N1c1ccccc1 (centres unmarked),5.66%
5,CCOc1ccc(NC(=O)c2c(O)[nH]c(=O)[nH]c2=O)cc1,11%
6,Cc1ccc(C)c(N2C(=O)c3cc(N4CCOCC4)c([N+](=O)[O-])cc3C2=O)c1,1.55%
7,CC1CCN(C(=O)Cn2c3ccc(F)cc3c3nc4n(c(=O)c32)CCCS4)CC1,9.65%
8,CCOC(=O)N1CCN(S(=O)(=O)c2ccc(C(=O)Nc3nnc(CC)o3)cc2)CC1,1.65%
9,COc1ccc(-c2cc3c(=O)n(CC(=O)NCc4ccccc4F)ncn3n2)cc1,11.9%
10,CCOC(=O)C1(CCOc2ccccc2)CCN(Cc2ccc(NC(C)=O)cc2)CC1,-38.6%
11,C=CCN(Cc1cn(C)nc1-c1cccc(Cl)c1)C1CCS(=O)(=O)C1 (centres unmarked),7.57%
12,COC(=O)c1c(NC(=O)CN2CCN(c3ccccc3OC)CC2)c2cc(C)ccc2n1C,17.1%
13,Cc1ccc(-c2cc(-c3ccccc3)no2)c(O)c1,6.71%
14,C[C@@]12C(=O)N(CCc3c[nH]c4ccccc34)CC(=O)N1[C@H]1c3ccccc3OC[C@@H]1[C@@H]2c1ccccc1,10.3%
15,Nc1n[nH]c(=S)n1-c1ccc(Cl)cc1,14.9%
16,Cc1cc2c(c(=O)o1)C(c1cccs1)C(C#N)=C(N)O2 (centres unmarked),3.76%
17,COc1ccccc1-n1c(C)c2c(OC)cccc(=O)c2c1C,-0.267%
18,Cc1ccc(CN(N=Nc2nonc2N)c2nonc2N)c(C)c1,17.2%
19,COc1nccnc1NS(=O)(=O)c1ccc(N/C=C2\CCCCC2=O)cc1,11.8%

row,Structure (SMILES),"hERG current change (%, negative = inhibition) at 1uM"
1,CCc1ccc(C2=NN(CCC(=O)NCC3CCCO3)C(=O)CC2)cc1 (centres unmarked),17.6%
2,CCCC[C@@H]1CNC(=S)N1CCc1cccc2ccccc12,16.2%
3,Cc1ccc(C(=O)Oc2ccc(-c3nnco3)cc2)o1,1.7%
4,C=CCNC(=O)C1CCN(C(=O)c2ccc(-c3ccccc3)cc2)CC1,12%
5,NC(=O)NC(=O)C(Nc1ccc(N2CCCCC2)cc1)c1ccccc1 (centres unmarked),13.7%
6,Cc1cccn2c(=O)c(C=O)c(N3CCN(c4ccccc4)CC3)nc12,-3.19%
7,CC(C)C[C@H](NC(=O)c1nc[nH]c1C(=O)NCC(=O)OC(C)(C)C)C(=O)OC(C)(C)C,17%
8,N=C1C(c2nc3ccccc3s2)=C(O)CN1Cc1ccccc1,0.75%
9,COc1ccc(NC(=O)CN(C)C(=O)Cc2ccc(S(=O)(=O)N3CCOCC3)s2)cc1,12.2%
10,CCc1ccc(N2CCN(S(=O)(=O)CC34CCC(CC3=O)C4(C)C)CC2)cc1 (centres unmarked),13.8%
11,COc1cccc(CN2CCNC(=O)C2CC(=O)N(C)CC2CCOCC2)c1OC (centres unmarked),10.6%
12,CN(C)c1ccc(CNCCC(Cc2ccccc2)c2ccco2)cc1 (centres unmarked),-8.96%
13,Cc1nn(S(=O)(=O)c2ccccc2)c(C)c1S(=O)(=O)N1CCOCC1,19.2%
14,CC(CN1CCC(n2nccc2NC(=O)CCCc2ccccc2)CC1)c1ccccc1 (centres unmarked),3.19%
15,CC(C)CCN1CCN(Cc2cnc(-c3ccccc3)s2)CC1CCO (centres unmarked),-16.6%
16,CN(CCC#N)S(=O)(=O)c1ccc2c(c1)c(=O)n(C)c(=O)n2C,10.5%
17,COc1cccc(C2C(C(=O)Nc3ccccc3)=C(C)N=c3s/c(=C/c4ccc(OCC(=O)O)cc4)c(=O)n32)c1 (centres unmarked),1.32%
18,COc1ccccc1CNC(=O)c1nn(-c2ccc(C)cc2)c(=O)c2c1c1ccccc1n2C,-3.52%
